{"source": "the supplement of paper PMC11417369", "note": "± gives the standard deviation of the averaged measurements. Some of the results follow.", "data": [{"test_system": "PfAP2-EXP AP2 domain (GST-tagged)", "test": "gcPBM binding intensity (ln(normalized median fluorescence intensity)); higher = stronger DNA binding", "outline": "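An Agilent 4 × 180k array of primer-extended double-stranded 36-bp intergenic genomic probes, with negative controls, was incubated for 1 h with GST-tagged P. falciparum DNA-binding domains expressed in E. coli. Alexa488 anti-GST antibody detected bound protein, scanned at 488 nm. Binding intensity is the highest Masliner-normalised natural-log median intensity across replicate spots of either probe orientation.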", "values": [{"sequence": "TATATAACCTATAGCACACATATATAATATATATTA [CACACA_site1834]", "gcPBM binding intensity (ln)": "8.64 ± 0.25"}, {"sequence": "TTCTATTCAAATGCAAAATTATTAAATAAAAAATAA [GTGCAC_negctrl_site708]", "gcPBM binding intensity (ln)": "8.47 ± 0.49"}, {"sequence": "AAACGTGTGTATAATAGTACATAATTATAACGTAAT [XGTACX_site421]", "gcPBM binding intensity (ln)": "8.82 ± 0.38"}, {"sequence": "AAATTTGGCAAACACACACACACACCCACAGAGACA [CACACA_site4490]", "gcPBM binding intensity (ln)": "8.73 ± 0.49"}, {"sequence": "CGTATTTTTGGACATGCATGTACAAATAATCTTATG [TGCATGCA_site973]", "gcPBM binding intensity (ln)": "9.14 ± 0.33"}, {"sequence": "TTGGGCATAATGTCATGTACACAAATAATTCTTTAT [XGTACX_site861]", "gcPBM binding intensity (ln)": "8.54 ± 0.43"}, {"sequence": "ATATATGGAGCTTATACACACTTTTATATTTTAACA [CACACA_site7757]", "gcPBM binding intensity (ln)": "8.48 ± 0.4"}, {"sequence": "TAAGTTTTGTTCTTTTGTACATATAAGTATAGATCG [XGTACX_site4735]", "gcPBM binding intensity (ln)": "8.48 ± 0.33"}, {"sequence": "AATGTTTTTGTGAGATGTATAAATTTTATTTTATTT [XGTACX_negctrl_site413]", "gcPBM binding intensity (ln)": "8.38 ± 0.38"}, {"sequence": "AAAAAAATAATGTACACACACATATAGGTTTATATA [CACACA_site192]", "gcPBM binding intensity (ln)": "8.45 ± 0.38"}, {"sequence": "TATAGATTTATATACACATGCATTTTGGTAAAGAAA [TGCATGCA_site953]", "gcPBM binding intensity (ln)": "8.8 ± 0.36"}, {"sequence": "AAATATATTTCTTTTTTTCTTATTATTAATTTGCTT [CACACA_negctrl_site1483]", "gcPBM binding intensity (ln)": "8.54 ± 0.52"}, {"sequence": "TTATAATAAATATTCATATGTTCAAATATATATATA [CACACA_negctrl_site624]", "gcPBM binding intensity (ln)": "9.625 ± 0.021"}, {"sequence": "TTTATTTATTATTATGTACACACTATATTAAAACAT [CACACA_site700]", "gcPBM binding intensity (ln)": "8.73 ± 0.31"}, {"sequence": "TATTTTTTTAATAACTGTACTTTTTTGTCAAATGGA [XGTACX_site4179]", "gcPBM binding intensity (ln)": "8.44 ± 0.085"}, {"sequence": "ATTGTAAGTAGACACACACACATATAGATGTATATA [CACACA_site6463]", "gcPBM binding intensity (ln)": "8.63 ± 0.42"}, {"sequence": "TTAAAATTATAATACGTACACACCTTATCTTTTTGG [CACACA_site278]", "gcPBM binding intensity (ln)": "8.74 ± 0.36"}, {"sequence": "ATATATAACGGGCACACACACATTTACGTATGAATA [CACACA_site1833]", "gcPBM binding intensity (ln)": "8.79 ± 0.5"}, {"sequence": "TGTTGTTTTATGTTGTATTGTAATATATTATATTAT [XGTACX_negctrl_site46]", "gcPBM binding intensity (ln)": "8.92 ± 0.4"}, {"sequence": "GGCGTATGTGTATATACACACCCACGTATATATATA [CACACA_site9046]", "gcPBM binding intensity (ln)": "9.16 ± 0.16"}, {"sequence": "TTAGGATTGAAGAGTTGTACATACCTCTTATTTGTT [XGTACX_site1376]", "gcPBM binding intensity (ln)": "8.39 ± 0.52"}, {"sequence": "ATCATATATTATTTATGTACTTATTTATAATAATAT [XGTACX_site8257]", "gcPBM binding intensity (ln)": "8.45 ± 0.62"}, {"sequence": "TATAAAATGTAATCTGAACACACATATTTTTTTAAT [CACACA_site8521]", "gcPBM binding intensity (ln)": "8.11 ± 0.37"}, {"sequence": "TATATTTGTGCGTGTACACATTTGAAAAAATATATA [CACACA_site5079]", "gcPBM binding intensity (ln)": "8.84 ± 0.19"}, {"sequence": "CATATAATAAATAATTGTACTTGATATAATATTATG [XGTACX_site3562]", "gcPBM binding intensity (ln)": "8.27 ± 0.29"}, {"sequence": "GACATATATACCAAACGTACATATGTGCAAGCATAA [XGTACX_site3089]", "gcPBM binding intensity (ln)": "8.57 ± 0.28"}, {"sequence": "TTGGCTATAGCCAATTGTACTTTTTCTCTTTGGCTT [XGTACX_site1119]", "gcPBM binding intensity (ln)": "8.56 ± 0.39"}, {"sequence": "TCTTGATTAACTTAAAAAAAAAAAAAAAAAAAAAAA [CACACA_negctrl_site458]", "gcPBM binding intensity (ln)": "7.89 ± 0.35"}, {"sequence": "GCTTAATACAGAATAACACACAAAATAAATAAATAA [CACACA_site4041]", "gcPBM binding intensity (ln)": "8.62 ± 0.45"}, {"sequence": "TTTTTTTTTTTTTTTGCACACTTAAATTTGGTGGCT [CACACA_site5319]", "gcPBM binding intensity (ln)": "8.4 ± 0.48"}, {"sequence": "AATAATAATAAAAAGGTGCTGAAATATTTTTATTAT [GTGCAC_site9763]", "gcPBM binding intensity (ln)": "8.62 ± 0.16"}, {"sequence": "TATATAATTATTTTTTGTACTCATAATAATATGAAA [XGTACX_site289]", "gcPBM binding intensity (ln)": "8.64 ± 0.28"}, {"sequence": "ATAAATTATAATAACTGTACAAAAATAATATATTCA [XGTACX_site1856]", "gcPBM binding intensity (ln)": "8.61 ± 0.44"}, {"sequence": "ATATGTACAAAATAAGCACACACAAAAAAAAAAAAA [CACACA_site8984]", "gcPBM binding intensity (ln)": "8.31 ± 0.57"}, {"sequence": "TTTTTTTTTTTTTTTTGTACATAAATTTTTATTAGA [XGTACX_site6409]", "gcPBM binding intensity (ln)": "8.17 ± 0.35"}, {"sequence": "AAAAAAAAAAAAAATATATATATATATATATATATA [CACACA_negctrl_site540]", "gcPBM binding intensity (ln)": "10.2 ± 0.2"}, {"sequence": "TATGAGAAAAAAAGTACATGCACAAAATGTATATGT [TGCATGCA_site789]", "gcPBM binding intensity (ln)": "9.03 ± 0.25"}, {"sequence": "CAACATTGTTCCTATTGTACATGAACTGTTCATACG [XGTACX_site4070]", "gcPBM binding intensity (ln)": "8.81 ± 0.44"}, {"sequence": "ATTATATAAACCAAATGTACAAAAAGGTCGTAGTGG [XGTACX_site1298]", "gcPBM binding intensity (ln)": "9.03 ± 0.38"}, {"sequence": "ATTATTAAGGTTTATTCAAAAAAGACGTTTTTAAAT [CACACA_negctrl_site1059]", "gcPBM binding intensity (ln)": "8.03 ± 0.38"}, {"sequence": "AGACACGTATACGATGCACACGTATGCTTTATATAT [CACACA_site9363]", "gcPBM binding intensity (ln)": "9.02 ± 0.32"}, {"sequence": "TATTTTTATTTTTAAACCATATATATATATATATAT [CACACA_negctrl_site1560]", "gcPBM binding intensity (ln)": "10.3 ± 0.23"}, {"sequence": "ATAAAAATATTTATTACACACATAAGCAAAAAAAAA [CACACA_site3484]", "gcPBM binding intensity (ln)": "8.64 ± 0.44"}, {"sequence": "TATAATGATGATGATAGTACGTATGAGTAAGAAAAA [XGTACX_site31]", "gcPBM binding intensity (ln)": "9.01 ± 0.33"}]}]}
